Each structure is given as a SMILES string. About 1,700 (3.3%) of roughly 52,000 compounds were called active. No stated cut-off is given here; in the data, active means survival mostly below about 52% (no sharp cut-off); inactive means mostly above about 56%. The list shows a part of the results.

This test deals with Wild type. The test can be described thus: growth inhibition of S. aureus wild type versus tarO mutant, primary screen, teichoic acid synthesis inhibitors, RN4220, OD600 (AID 463173). Conditions: S. aureus RN4220 wild type/DeltatarO growth, OD600, 18 h, active compounds read low, screened at 18.75 µg/mL (by protocol).
For the molecule `Cc1cccc(CNC(=O)CN2C(=O)CSc3c2c(C)nn3-c2ccccc2)c1`, the survival was inactive: 72%.
The result for `COc1cc(C(CC(=O)Nc2ncccc2C)N2Cc3ccccc3C2=O)cc(OC)c1OC` (stereo not drawn) reads inactive: 71%; that for `CC(C)OC(=O)Cn1c(C2CC2)nc2ccccc2c1=O`, inactive: 115%.
Under `COc1ccc(-c2nc3cc(NC(=O)c4ccc(C)cc4)ccc3o2)cc1Cl` stands inactive: 97%; under `CC(=O)c1cc(-c2ccc(F)cc2)n(CCC(=O)Nc2nc3ccc(C)cc3s2)c1C`, inactive: 68%.
As for `O=C(OCc1cc(=O)n2nc(C3CC3)sc2n1)c1ccc(NC(=O)c2ccccc2F)cc1`, the survival was inactive: 82%.
Under `Cc1ccc(C(=O)N2CCC(C)CC2)cc1NC(=O)c1nsc2ccccc12` stands inactive: 80%.
For the molecule `CCOc1ccc(Br)cc1C1NC(=O)c2c(sc3c2CCN(C)C3)N1` (stereo not drawn), the survival was inactive: 77%.
Under `COc1ccc(CCNc2ncnc3onc(C)c23)c(OC)c1` stands inactive: 143%.
Take `COCCCn1c(=N)c(C(=O)NC2CCCCC2)cc2c(=O)n3cc(C)ccc3nc21`: the survival was inactive: 78%.
With `CCCC(=O)N1CCN(c2ccc(NC(=O)c3ccco3)cc2Cl)CC1`, the survival is inactive: 92%.
With `CC1CCN(S(=O)(=O)c2ccc3nc(N4CCN(c5ccc(F)cc5)CC4)ccc3c2)CC1`, the survival is inactive: 92%.
`CCc1ccccc1NC(=O)c1ccc(F)c(S(=O)(=O)N2CCN(c3cccc(Cl)c3)CC2)c1`: the survival is inactive: 63%.
Turning to `CC1CCCCN1CCCNC(=O)Cn1ncc2c3ccccc3n(C)c2c1=O` (stereo not drawn), the survival is inactive: 85%.
Under `Cc1ccc(S(=O)(=O)c2cc3cc(C(=O)Nc4ccc(C)cc4C)ccc3oc2=O)cc1` stands inactive: 91%.
As to `CCOc1ccc(NC(=O)CSc2oc(-c3ccc(C)cc3)nc2S(=O)(=O)c2ccc(C)cc2)cc1`, the survival was inactive: 143%.
Consider `COc1ccc(-c2cc(C(F)(F)F)nc(NCc3ccc(F)cc3)n2)cc1`, for which the survival is active: -5%.
Under `COc1cccc(C(=O)N(Cc2ccc(C)o2)C2CCS(=O)(=O)C2)c1` (stereo not drawn) stands inactive: 87%; under `O=C(COCc1cc(-c2cccs2)on1)Nc1cc(C(F)(F)F)ccc1Cl`, inactive: 83%.
The result for `CC(C)OCCCNC(=O)CCCN1C(=O)CCn2nc(-c3cccn3C)cc21` reads inactive: 131%.
Under `Cc1ccc(O)c(-c2n[nH]c3c2C(c2ccc(F)cc2)N(Cc2ccco2)C3=O)c1` (stereo not drawn) stands active: 2%.
With `Cc1cc(C)c(NC(=O)CSc2nc3c([nH]c4ccccc43)c(=O)n2C)c(C)c1`, the survival was inactive: 77%.
Regarding `O=c1[nH]c2nonc2nc1/C=C(\O)c1ccccc1`, the survival was inactive: 34%.
On to `COc1ccc(CCNC(=O)c2ccc(Cn3c(=O)[nH]c4cc(OC)c(OC)cc4c3=O)cc2)cc1OC`, for which the survival was inactive: 76%.
Under `CCc1ccccc1N(CC)C(=O)C1CCN(c2ncnc3c2nc2n3CCCCC2)CC1` stands inactive: 59%; under `CN=C1SC(C(=O)Nc2ccccc2)CC(=O)N1C` (stereo not drawn), inactive: 114%; under `COc1cc(NC(=O)C2CCN(c3nc4ccccc4nc3C(F)(F)F)CC2)cc(OC)c1`, inactive: 78%.
Under `CCCCNC(=O)CN1CCN(c2ncc(NC(=O)c3ccc(Cl)cc3)cc2C(=O)O)CC1` stands inactive: 75%; under `CCCOc1cccc(C2c3c(oc4ccc(F)cc4c3=O)C(=O)N2c2nc(C)c(C(C)=O)s2)c1` (stereo not drawn), inactive: 64%; under `COCCc1nn2c(=O)cc(COC(=O)c3ccc(Br)cc3)nc2s1`, inactive: 134%.
The result for `CCC(C)NC(=O)c1sc2nc3n(c(=O)c2c1C)CCC3` (stereo not drawn) reads inactive: 85%; that for `CN1CCN(C(CNC(=O)c2c(F)cccc2F)c2ccc3c(c2)OCO3)CC1` (stereo not drawn), inactive: 93%; that for `CC(=O)N1N=C(c2ccccc2)CC1c1ccccc1` (stereo not drawn), inactive: 104%.
`Cc1cccc(N2CCN(C(=O)c3cc4ccc5cccnc5c4[nH]3)CC2C)c1` (stereo not drawn): the survival was inactive: 101%.
For the molecule `N#CC(C(=O)c1ccc(F)cc1)c1nc2ccccc2[nH]1` (stereo not drawn), the survival is inactive: 103%.
The result for `CCN(C(=O)Cn1ncc2c(=O)oc3ccccc3c21)c1ccccc1F` reads inactive: 122%.
The result for `O=c1c2ccccc2n(Cc2cccc(Cl)c2)c(=O)n1Cc1ccccc1` reads inactive: 96%; that for `COCCCNc1nc(NCc2ccc(C)cc2)c2cnn(C)c2n1`, inactive: 86%; that for `O=C1NC(=O)C(Nc2cccc3ccccc23)S1` (stereo not drawn), inactive: 104%.
Regarding `COc1cccc2c1cc1c(=O)n(CC(=O)N3CCC(C)CC3)nc(C)n12`, the survival is inactive: 83%.
Under `COc1ccccc1-c1nc(SCC(=O)c2ccc(Cl)cc2)n[nH]1` stands inactive: 131%; under `CCC(=O)Nc1sc2c(c1C(=O)Nc1ccc(Br)cc1)CCCCC2`, inactive: 144%; under `Cc1cc(C)c(O)c(N)c1`, inactive: 113%.
For `Cc1ccc2oc(=O)c3cc(C(=O)NCCc4ccc(Cl)cc4)sc3c2c1`, the survival is inactive: 84%.
The result for `COc1cc(OC)cc(C(=O)NCCc2csc(-c3ccc(C(F)(F)F)cc3)n2)c1` reads inactive: 55%.
For `CC1=CC(C)(C)N(C(=O)CNC2CCCCC2)c2cc(C)ccc21`, the survival was inactive: 105%.
The result for `Cc1ccc(NC(=O)CCN2C(=O)c3ccccc3Sc3ncccc32)c(Cl)c1` reads inactive: 89%; that for `COc1ccccc1NC(=O)c1sc2nc(C)c(C(=O)Nc3ccc(C)cc3C)c(-c3ccccc3Cl)c2c1N`, inactive: 139%.
Under `CCS(=O)(=O)N1CCc2cc(C(=O)NCc3ccccc3Cl)ccc21` stands inactive: 84%; under `CCCCc1nn2c(=O)cc(COC(=O)c3ccccc3C)nc2s1`, inactive: 72%.
Under `CN(Cc1ccccc1)S(=O)(=O)c1ccc2c3c(cccc13)C(=O)N2` stands inactive: 112%; under `Cc1ccc(-n2nc3c(=O)n(C(C)C(=O)NCc4ccccc4C)nc(C)c3c2C)cc1` (stereo not drawn), inactive: 128%; under `CCOc1ccccc1NS(=O)(=O)c1cc(-c2cnc(C3CC3)o2)ccc1C`, inactive: 135%.
`CCc1ccccc1NC(=O)NC(CC)Cn1nnc2ccccc2c1=O` (stereo not drawn): the survival is inactive: 93%.
The result for `CCCn1nnnc1SCC(=O)N1CCCC1` reads inactive: 97%.
The result for `Cc1cc2n(n1)CCC(=O)N2Cc1ccc(C(=O)Nc2cccc(C(F)(F)F)c2)cc1` reads inactive: 75%; that for `Cc1ccc(C)c(NC(=O)CSc2nc(=O)n(Cc3ccncc3)c3c2CCC3)c1`, inactive: 102%; that for `CC(=O)N1c2ccc(S(=O)(=O)NCCC(=O)N(C)Cc3ccccc3)cc2CC1C` (stereo not drawn), inactive: 86%.

Values taken from PubChem BioAssay AID463173 (ICCB-Longwood Screening Facility, Harvard Medical School, 2010).
